According to the supplement of paper PMC3334620:
Over roughly 33,000 sequences, “E-score (-0.5 to 0.5)” has its median near -0.012; the highest 2% begin near 0.27. This is one part of the list.

target: T1, Vhr1 (UniProt P40522); assay: PBM E-score (8-mer binding enrichment) (E-score (-0.5 to 0.5)); higher = stronger / more preferred TF binding; most listed sequences are background and not binding sites; details: protein concentration: 200 nM; construct: GST-full length
T1 sequence: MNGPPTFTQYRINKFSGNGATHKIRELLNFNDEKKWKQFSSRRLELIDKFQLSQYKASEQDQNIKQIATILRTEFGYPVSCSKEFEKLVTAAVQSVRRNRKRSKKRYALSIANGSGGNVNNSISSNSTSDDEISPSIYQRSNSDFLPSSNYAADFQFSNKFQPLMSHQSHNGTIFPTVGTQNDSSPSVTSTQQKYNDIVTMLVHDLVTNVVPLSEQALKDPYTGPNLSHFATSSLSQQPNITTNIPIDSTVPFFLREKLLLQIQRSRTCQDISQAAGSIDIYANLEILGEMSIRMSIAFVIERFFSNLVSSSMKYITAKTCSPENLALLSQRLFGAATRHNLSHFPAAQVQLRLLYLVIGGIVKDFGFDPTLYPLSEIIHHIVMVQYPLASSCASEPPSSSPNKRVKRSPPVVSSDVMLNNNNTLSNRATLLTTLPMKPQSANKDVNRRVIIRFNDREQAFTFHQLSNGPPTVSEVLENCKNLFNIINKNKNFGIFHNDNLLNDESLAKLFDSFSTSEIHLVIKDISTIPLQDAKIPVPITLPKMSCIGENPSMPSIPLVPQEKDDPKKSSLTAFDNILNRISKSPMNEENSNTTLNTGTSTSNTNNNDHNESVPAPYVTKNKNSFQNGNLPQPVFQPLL
Description: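 Universal 'all 10-mer' protein binding microarrays (Agilent AMADID 015681) probed with GST-tagged S. cerevisiae TFs (full-length or DBD) made by in vitro transcription/translation (PURExpress), about 100-200 nM. Bound TF was detected with fluorescent anti-GST. Each ungapped 8-mer (which stands for itself and its reverse complement) is scored by the PBM enrichment score (E-score), a modified Wilcoxon-Mann-Whitney statistic from -0.5 to +0.5, computed with the Universal PBM Analysis Suite. Scale: above 0.35 generally sequence-specific binding.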

Row | Sequence | PBM E-score
1 | ATCCGCCG | 0.172
2 | AGTTGTTA | -0.0902
3 | AAGCGTGT | -0.137
4 | AGCCAGTG | 0.00862
5 | TCGGGTCA | 0.182
6 | CGCTATAA | -0.11
7 | ACATTGCG | 0.0694
8 | AACACCCA | 0.0787
9 | GCGCTGTA | -0.0763
10 | GCACGAAA | 0.0619
11 | ATTCGTGA | 0.149
12 | GAGTGCCA | -0.251
13 | ATAGAGAT | -0.0731
14 | GCAGCCGA | 0.0559
15 | ATCATATC | 0.3
16 | GACAATGA | -0.0528
17 | GCCAAGTA | -0.161
18 | CGCTACTA | 0.0896
19 | TGCTGACA | 0.0211
20 | CGCAAAAA | -0.0621
21 | CAAGAATC | 0.179
22 | ATCAACGA | -0.0479
23 | CAGGACAC | 0.135
24 | TATAATCA | 0.2
25 | AACAACCG | 0.0157

Row | Sequence | PBM E-score
26 | AAATATAT | 0.22
27 | CGGGTTCA | 0.0938
28 | CATATAAC | 0.163
29 | ACCCCACT | 0.0662
30 | ACAGTATG | 0.277
31 | AGTCCACA | 0.0206
32 | CACTTCCA | -0.089
33 | AGCGCCTC | -0.0748
34 | AAAGCAAC | -0.066
35 | AACAGTCG | -0.0436
36 | GGGGATAA | 0.0234
37 | CCCTTCGC | -0.0743
38 | ACTCCGGG | 0.25
39 | TCTAGCCA | 0.0254
40 | AAATGTAT | 0.116
41 | CAAGCCGA | 0.129
42 | GGTCTTCA | -0.235
43 | AACATTAT | 0.086
44 | CAGATGTA | -0.0675
45 | AAGCACAG | 0.0788
46 | CACGGTTA | 0.0597
47 | CCATAGAA | 0.0209
48 | CAAATTCC | -0.0834
49 | CAAAGGGA | -0.0236
50 | TGCGTTAA | -0.0218

Row | Sequence | PBM E-score
51 | ACGGCGGA | 0.142
52 | CCGGGCCC | -0.0522
53 | AGTACCAA | 0.208
54 | AGCACGTC | -0.124
55 | ATACACAC | 0.142
56 | AGTCGTGG | 0.227
57 | GAACAAAC | 0.125
58 | AACATCAC | 0.0175
59 | GGAATCGA | -0.0746
60 | GTATCACA | 0.202
61 | TTACAGAA | -0.218
62 | GTAGAAAA | -0.227
63 | TGATCTAA | -0.0535
64 | AGGCTTCC | -0.119
65 | CCCGTGAA | -0.0611
66 | TTGGTAAA | -0.12
67 | GAATCGCC | 0.201
68 | CGGATGTA | -0.142
69 | AGGAGGCA | -0.227
70 | CTTGACTC | 0.262
71 | GCTGTGGA | 0.0567
72 | ACAGACGG | -0.0633
73 | AAATGGCC | -0.311
74 | ACTTACGG | -0.179
75 | ATGAGGCC | -0.318

Row | Sequence | PBM E-score
76 | AGCCGATA | -0.0477
77 | GGTCTGAA | 0.0326
78 | ACTAAGCA | -0.0575
79 | CCTGCTGC | 0.0109
80 | GAAGTGTC | -0.095
81 | ACTGAGTG | 0.0665
82 | AGGTTTCA | 0.0277
83 | TACTATCA | 0.235
84 | ACCCGCGT | 0.00191
85 | GTTTCGCA | -0.137
86 | CATATACC | 0.0435
87 | GGGGCAGA | -0.126
88 | ATCAGAGA | 0.0517
89 | CATTCTAA | -0.066
90 | AATCACTC | 0.115
91 | ACGCACCA | 0.0769
92 | CTGTTTGC | 0.0939
93 | CTACATGA | 0.227
94 | CGATTGAA | -0.0599
95 | AGGCCACG | 0.0465
96 | TAGCGCGA | 0.164
97 | CGATAGTA | 0.235
98 | ACGGGAAC | -0.0727
99 | AGAAGGAA | -0.208
100 | ACGTGTTA | -0.0598

Row | Sequence | PBM E-score
101 | AGCGTTAA | -0.178
102 | AGATAGCA | -0.00092
103 | CTAGGCGA | -0.0182
104 | GACTTTAC | 0.095
105 | ATTGTTCA | 0.00212
106 | TATACAAA | 0.068
107 | GTCGACAA | -0.0547
108 | CCAATGAG | -0.145
109 | AGCTGTCG | -0.188
110 | ACAAGTTC | -0.0427
111 | ACCGAGAG | 0.0506
112 | AACGGACC | -0.182
113 | CCGAAGAG | -0.201
114 | GGGCGTGA | 0.297
115 | GCCGCTTA | 0.0714
116 | AGCCAGAT | -0.0809
117 | GGAACTAA | -0.14
118 | AATTACGC | -0.0867
119 | CTGACGGC | -0.122
120 | AGGCAAAA | -0.128
121 | ATCACAGA | 0.148
122 | CGCTCGCA | 0.0706
123 | AAAACAGA | -0.0965
124 | ACTCTGTC | 0.052
125 | GCCACGAA | -0.125

Row | Sequence | PBM E-score
126 | ATACTTTC | -0.0068
127 | CTTGATAA | 0.0306
128 | GTCAGCAC | 0.0584
129 | TAATCCAA | 0.132
130 | CCCCAAAC | -0.106
131 | ACTCGAAG | -0.13
132 | CCCTCTCA | -0.302
133 | CCCGAGTA | 0.184
134 | ACCCCCAT | -0.147
135 | ATATGTCC | 0.00501
136 | CTTCCTAA | -0.328
137 | CCGCACTA | 0.112
138 | CGTGGGAG | 0.0618
139 | CCGAACCC | -0.0768
140 | ACCCTTGA | -0.157
141 | ACAATGCG | 0.113
142 | ACAGTGTA | 0.204
143 | GAGTTGCC | -0.00989
144 | CCTATGAG | -0.018
145 | AAGACGTC | -0.133
146 | AGATGACG | -0.0386
147 | AGAGCGAC | 0.0123
148 | AAAAACGC | 0.0266
149 | ACCTGCAG | -0.0632
150 | AACTGTCA | -0.0442

Row | Sequence | PBM E-score
151 | AGTTGCGA | 0.00943
152 | CATCTCGC | 0.0798
153 | AGCTAGTC | 0.197
154 | CCCTCGAG | -0.0173
155 | TCACGTCA | 0.039
156 | TTTGCAAA | -0.151
157 | GTCTAGCA | 0.0138
158 | AGTGGGGC | 0.124
159 | GAAGTGCA | -0.0763
160 | AAGATAAT | -0.0906
161 | GCGGTCAA | -0.00367
162 | CCGCGGTC | 0.0321
163 | GCCCTAGC | -0.121
164 | CATATTTA | 0.212
165 | TAAAGTGA | 0.164
166 | ACGGTAAA | -0.285
167 | ACTCCAAG | 0.0874
168 | CAACTAAG | -0.0982
169 | GCTGCGCC | 0.0437
170 | TTACGTAA | -0.295
171 | AGCCCTTC | -0.331
172 | CAGCTGCA | -0.344
